Test results from PubChem BioAssay AID1794842 (National Center for Advancing Translational Sciences (NCATS), 2023).
The whole screen tested about 2,800 compounds, of which fewer than 10 were called active. Calls follow the shape of the dose curve; as a rule, active = well fitted curve in the direction sought with a large enough effect; inconclusive = small, poorly fitted or top-dose-only effect, or another doubt; inactive = no such curve, though single readings can be large or run the other way. The list shows a part of the results.

Biological target: Metallo-beta-lactamase type 2 (Klebsiella pneumoniae) (UniProt C7C422)
Sequence of UniProt C7C422 (C7C422 whole entry, looked up): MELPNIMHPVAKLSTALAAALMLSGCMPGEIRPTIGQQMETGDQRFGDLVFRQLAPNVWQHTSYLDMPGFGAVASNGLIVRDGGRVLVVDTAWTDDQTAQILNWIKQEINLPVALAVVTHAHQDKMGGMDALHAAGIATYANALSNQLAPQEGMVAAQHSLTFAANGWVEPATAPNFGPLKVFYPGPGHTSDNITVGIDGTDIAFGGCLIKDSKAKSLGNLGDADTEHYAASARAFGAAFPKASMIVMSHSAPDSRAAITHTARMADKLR
Assay: qHTS to identify inhibitors of the New Delhi Metallo-beta-lactamase (NDM): Meropenem screen against the machine-based learning selections. Also: % of control where 0% means no effect.
Settings: Purified NDM-1, meropenem hydrolysis, absorbance 300 nm; at 38.4 µM (top of the series) unless noted
Procedure, shortened: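 NDM-1 (2 nM final) in 50 mM HEPES pH 7.0, 1 uM Zn2SO4, 0.01% Tween20 was preincubated with compounds for >30 min. Nitrocefin (16.7 uM final) was read at 485 nm after 15 min, and meropenem (50 uM final) at 300 nm after 30 min.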

SMILES	activity change, negative = inhibition
Cc1ccc(C(=O)NC2CCN(c3ccc(F)cc3)C2=O)s1 (stereo not drawn)	inactive: 0.556%
O=C1C(c2ccccc2)CC2(CCN(c3cnccn3)CC2)CN1C1CC1 (stereo not drawn)	inactive: -3.61%
O=C(NC[C@H]1O[C@@H]2C[C@@H](CC(=O)N3CCOCC3)O[C@@H]2[C@@H]1O)Nc1cccs1	inactive: 3.46% [at 57.5 µM]
Cc1nc(C(C)C)sc1C(=O)N1CCC(=O)N(CC2CC2)C(C(C)C)C1 (stereo not drawn)	inactive: -0.465%
C[C@@H](NS(=O)(=O)c1ccccc1)c1onc(-c2ccccc2)c1C(=O)O	inactive: 5.46% [at 57.5 µM]
COCCNC(=O)Cc1c[nH]c2ncc(-c3cccnc3)cc12	inactive: 66.7% [at 57.5 µM]
COc1ccc(-c2cc(N3CCCC(NC(=O)c4cccn4C)C3)n[nH]2)cc1 (stereo not drawn)	inactive: -0.774%
CNC(=O)c1cccc(-c2cnc(Nc3cccc(F)c3)c3c2CCO3)c1	inactive: 4.96% [at 57.5 µM]
CN1C[C@@H]2CCCN3CCC[C@@H]([C@H]23)[C@H]1CCCC(=O)Nc1ccc2c(c1)OCCO2	inactive: 1.41%
CC1=C[C@@H](CNC(=O)COc2ccccc2)[C@H](C(C)C)C[C@H]1Cc1nnc(-c2cncn2C)o1	inactive: 1.85%
O=C(NC[C@H]1O[C@@H](CO)[C@@H](O)[C@H]1N1CCOCC1)Nc1ccc(OC(F)(F)F)cc1	inactive: 29.4%
CN1[C@@H](CCC(=O)N2CCC(O)CC2)CNC(=O)[C@@H]2[C@H]1CCN2Cc1cccc(OC(F)(F)F)c1	inactive: 0.921%
O=C(O)[C@H]1C[C@@H](C(=O)NCc2ccncc2)CN(C2CCOCC2)C1	inactive: 11.6%
Cc1ccc(C2(O)CCN(C(=O)c3cnn4cc(CCO)cnc34)CC2)nc1	inactive: 0.707%
COCC(=O)N[C@H]1C[C@H]2C(=O)NC[C@@H](CCC(=O)N3CCN(c4ccccn4)CC3)N2C1	inactive: 5.83%
O=C(CN1CC2CC(C1)[C@H]1CCCC(=O)N1C2)NCc1ccc2c(c1)OCO2 (stereo partly drawn)	inactive: 0.0742%
O=C(NCc1csc(-c2cnccn2)n1)C1NCCc2[nH]cnc21 (stereo not drawn)	inactive: 15.2%
COc1ccc2nc(CO[C@H]3CN(C4CCC4)C[C@H]3F)[nH]c2c1	inactive: -0.689% [at 57.5 µM]
O=C1CO[C@H]2CN(c3nccc(C(F)(F)F)n3)C[C@H]2N1Cc1ccc(F)cc1	inactive: -1.3% [at 57.5 µM]
O=C(O)c1cc(Br)cc(S(=O)(=O)NC2CCCCC2)c1	inactive: 1%
NC(=O)c1cccc(-c2cc3c(cn2)CN(Cc2ccccc2)CCN3)c1	inactive: -0.317% [at 57.5 µM]
Cc1cccn2cc(C(=O)N3CCC4(CCCN(CC5CCC5)C4=O)C3)nc12 (stereo not drawn)	inactive: 0.979%
CC[C@H]1CN(C(=O)Nc2ccccc2)CC[C@H]1CC(=O)N(C)CC#N	inactive: -1.89% [at 57.5 µM]
COc1cccc([S+](=O)([O-])N2CCC3(CC2)C(=NC2CCCCC2)NC(=O)N3c2cccnc2)c1	inactive: -0.117%

SMILES	activity change, negative = inhibition
COCC(=O)NC[C@@H]1C=C(C)[C@H](Cc2nc3ccc(C(=O)OC)cc3[nH]2)C[C@H]1C(C)C	inactive: -3.43% [at 57.5 µM]
O=C(c1ccco1)N1C[C@@H]2C(CN(CC#Cc3ccccc3)C3CC3)[C@@H]2C1 (stereo partly drawn)	inactive: 0.121%
C[C@H]1CCCN1C(=O)c1nnc(CNc2ccc(C(=O)O)cc2)n1-c1ccccc1	inactive: 17.9% [at 57.5 µM]
COc1cccc(-c2nc3c([nH]2)CN(c2cc(C4CC4)ncn2)CC3)c1	inactive: 8.18%
N#Cc1cccc(NC(=O)O[C@@H]2CO[C@H]3[C@@H]2OC[C@@H]3Nc2nccc(-c3ccc4c(c3)OCO4)n2)c1	inactive: 0.41%
Cc1nnc(CN2CCN(C)C3(CCC(=O)N(CC(=O)O)CC3)C2)o1 (stereo not drawn)	inactive: 10.7%
COc1ccc(CN2C(=O)[C@@H]3C[C@@H](CN3C3COC3)Oc3ccccc32)cc1	inactive: 0.128% [at 57.5 µM]
NCCc1cccc(CN2CCCC(COc3ccccc3F)C2)c1 (stereo not drawn)	inactive: 0.683%
Cc1ccccc1C(=O)N1C[C@@H](F)C[C@H]1C(=O)N1CCOCC1	inactive: -0.824%
COc1ccc2nc3n(c2c1)[C@@H](CNC(=O)NC(C)C)COC3	inactive: -1.99% [at 57.5 µM]
Cc1ccc(O)c(CN2CC[C@@H](c3ccc4ccccc4c3)[C@H](O)C2)n1	inactive: 0.0609%
O=C1CO[C@H](c2ccc(NS(=O)(=O)c3cccc(F)c3)cc2)[C@@H](CO)N1Cc1ccncc1	inactive: 0.894%
C=CCNC(=O)N[C@H]1CCN(C(=O)CC(C)(C)C)[C@@H]1C(=O)N[C@@H](C(=O)OC)C(C)C	inactive: 3.86% [at 57.5 µM]
CC(C)CN(C(=O)CC1COc2ccc(C(=O)N(C)C)cc2N1C)C1CC1 (stereo not drawn)	inactive: -5.85%
CN1CCN(c2nc3c(s2)CN(C(=O)c2ccccc2)CC3)CC1	inactive: 1.43%
C[C@@H](NC(=O)[C@@]1(O)C[C@@H](O)[C@H](O)[C@@H](NC(=O)Nc2ccc(OC(F)(F)F)cc2)C1)C(N)=O	inactive: -4.53%
Cn1ccnc1CNCC1(COc2cccnc2)C[C@@H](O)[C@@H](O)C1 (stereo partly drawn)	inactive: 21%
c1ccc(N2CC3(CN(CC4CC4)CC3CNc3cccnc3)C2)cc1 (stereo not drawn)	inactive: 0.558% [at 57.5 µM]
CC(=O)c1[nH]c(C)c(C(=O)N2CCC3(CC2)[C@H](O)C[C@@H]3OCCO)c1C	inactive: 21%
CN(C)C[C@H]1C[C@@H](CO)CN(C(=O)c2ccccc2OC(F)(F)C(F)F)C1	inactive: 0.416%
CN(Cc1cc(-c2cccs2)n[nH]1)C(=O)c1cn(CCN)nn1	inactive: 0.0937%
CN(CCc1ccccn1)[C@@H]1[C@H](O)[C@H](CO)O[C@@H]1CNS(=O)(=O)c1cccs1	inactive: 48.1%
COc1ccc(-c2cc(-c3cccc(O)c3)cn3cncc23)cc1	inactive: 26.6% [at 57.5 µM]
Cn1nccc1C(=O)N1CCC(Cc2nc(C3CCOCC3)no2)CC1	inactive: 0.878%
